Biological target: T1, carcinoembryonic antigen (CEA) on LoVo, LS174T or H508 tumor cells (UniProt P06731 35-702, limits assumed)
T1 sequence (looked up): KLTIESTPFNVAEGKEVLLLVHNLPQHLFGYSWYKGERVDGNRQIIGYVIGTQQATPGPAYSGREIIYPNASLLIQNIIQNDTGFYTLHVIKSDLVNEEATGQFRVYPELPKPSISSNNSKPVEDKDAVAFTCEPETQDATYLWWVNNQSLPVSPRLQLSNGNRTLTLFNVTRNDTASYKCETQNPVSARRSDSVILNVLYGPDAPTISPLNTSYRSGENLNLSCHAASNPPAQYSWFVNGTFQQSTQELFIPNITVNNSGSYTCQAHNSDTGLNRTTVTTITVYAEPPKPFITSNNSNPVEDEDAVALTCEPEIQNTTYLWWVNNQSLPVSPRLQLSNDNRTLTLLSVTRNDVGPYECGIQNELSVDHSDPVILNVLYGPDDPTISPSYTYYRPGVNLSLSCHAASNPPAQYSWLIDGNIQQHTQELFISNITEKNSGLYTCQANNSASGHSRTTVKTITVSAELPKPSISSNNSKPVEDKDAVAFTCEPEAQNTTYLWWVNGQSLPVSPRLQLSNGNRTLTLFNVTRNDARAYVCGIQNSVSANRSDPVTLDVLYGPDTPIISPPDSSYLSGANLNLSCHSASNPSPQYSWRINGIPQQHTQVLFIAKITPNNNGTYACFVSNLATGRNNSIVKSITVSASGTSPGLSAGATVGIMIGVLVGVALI
Assay: cell-based or functional assay

B1: MFE23.CD28 CoStAR (MFE23 scFv fused to full length human CD28) (receptor)
chain: QVQLQQSGAELVRSGTSVKLSCTASGFNIKDSYMHWLRQGPEQGLEWIGWIDPENGDTEYAPKFQGKATFTTDTSSNTAYLQLSSLTSEDTAVYYCNEGTPTGPYYFDYWGQGTTVTVSSGGGGSGGGGSGGGGSENVLTQSPAIMSASPGEKVTITCSASSSVSYMHWFQQKPGTSPKLWIYSTSNLASGVPARFSGSGSGTSYSLTISRMEAEDAATYYCQQRSSYPLTFGAGTKLELKR[about 150 residues not written out]FWVLVVVGGVLACYSLLVTVAFIIFWVRSKRSRLLHSDYMNMTPRRPGPTRKHYQPYAPPRDFAAYRS
Question: B1 was tested. Which “T-cell expansion over 18 days with LoVo-OKT3 and IL-2” value did it give?
Answer: 20 fold

From patent US20220348631A1 (INSTIL BIO UK, published 2022)
